Experimental data reported in PMC4336329 (PLoS ONE, 2015).
In all, about 310,000 compounds went through this assay and about 14,000 (4.5%) showed an effect of 50% or more. Effects have a minus sign here. The list shows a part of the results.

Target: human ether-à-go-go-related gene (hERG) potassium channel (human, UniProt Q12809)
Assay: primary screen, population patch clamp on CHO cells stably expressing hERG
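Further: peak tail current of the secondary pulse compared with the same well before compound.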

Sequence of human ether-à-go-go-related gene (hERG) potassium channel (Q12809 whole entry, looked up): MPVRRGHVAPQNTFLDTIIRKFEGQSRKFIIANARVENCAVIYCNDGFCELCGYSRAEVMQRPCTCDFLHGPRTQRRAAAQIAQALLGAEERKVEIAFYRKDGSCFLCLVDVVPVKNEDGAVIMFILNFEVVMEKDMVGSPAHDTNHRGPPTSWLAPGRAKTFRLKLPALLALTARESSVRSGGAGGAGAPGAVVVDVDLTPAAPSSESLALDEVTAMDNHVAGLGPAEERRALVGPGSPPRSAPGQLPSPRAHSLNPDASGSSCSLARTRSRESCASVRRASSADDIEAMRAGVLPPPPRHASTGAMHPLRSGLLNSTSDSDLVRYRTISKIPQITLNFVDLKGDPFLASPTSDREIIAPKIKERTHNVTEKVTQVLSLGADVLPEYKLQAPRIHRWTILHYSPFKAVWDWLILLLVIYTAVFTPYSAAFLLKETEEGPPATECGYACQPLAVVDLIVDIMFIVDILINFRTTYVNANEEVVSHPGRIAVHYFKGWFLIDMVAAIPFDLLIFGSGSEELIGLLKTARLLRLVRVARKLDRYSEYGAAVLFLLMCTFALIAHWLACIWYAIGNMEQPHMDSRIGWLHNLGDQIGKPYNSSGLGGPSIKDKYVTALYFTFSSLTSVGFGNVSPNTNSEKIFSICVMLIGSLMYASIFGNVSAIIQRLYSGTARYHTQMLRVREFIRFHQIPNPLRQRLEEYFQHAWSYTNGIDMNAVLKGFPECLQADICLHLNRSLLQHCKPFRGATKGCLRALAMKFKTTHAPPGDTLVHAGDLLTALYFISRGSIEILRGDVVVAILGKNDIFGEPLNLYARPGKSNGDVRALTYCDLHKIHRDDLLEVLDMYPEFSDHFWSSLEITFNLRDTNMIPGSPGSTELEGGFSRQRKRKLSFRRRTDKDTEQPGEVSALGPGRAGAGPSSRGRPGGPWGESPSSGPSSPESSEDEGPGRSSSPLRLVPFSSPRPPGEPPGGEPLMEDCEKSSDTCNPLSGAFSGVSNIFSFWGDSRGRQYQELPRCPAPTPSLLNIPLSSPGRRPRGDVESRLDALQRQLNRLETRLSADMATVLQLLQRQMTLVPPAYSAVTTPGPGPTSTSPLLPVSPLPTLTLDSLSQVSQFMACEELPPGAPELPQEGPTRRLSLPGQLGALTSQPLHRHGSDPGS

| SMILES | hERG current change (%, negative = inhibition) at 10uM [%] |
| --- | --- |
| O=S(=O)(Cc1cc(-c2ccc(Cl)cc2)no1)c1ccccc1 | 0.608 |
| CCn1cc(C(=O)N[C@@H](CCSC)C(=O)NCCOC)c(=O)c2cc3c(cc21)OCO3 | 11.1 |
| CCOC(=O)CC1(NC(=O)C2CCC(=O)N(C3CC3)C2)CCCCC1 (centres unmarked) | 19.4 |
| Cc1cccc(C)c1NC(=O)COC(=O)c1cc(=O)c2ccccc2o1 | 5.2 |
| Cc1c(C(=O)N2CCN(CCc3ccccc3)CC2)oc2ccccc12 | -72.4 |
| Cc1ccc(NC(=O)CSc2nc3ncc(Cl)cc3[nH]2)c(C)c1 | 13.7 |
| CCOCCCNC(=O)c1c[nH]c2ccc(S(=O)(=O)Nc3cccc(OC)c3)cc2c1=O | 25.6 |
| COc1ccccc1NS(=O)(=O)c1ccc(NC(=O)N2CCCCC2)cc1 | 1.69 |
| O=C(Nn1c(-c2ccc(Br)cc2)nc2ccccc2c1=O)c1cccnc1 | 6.18 |
| CN1CCC(NC(=O)c2ccncc2)CC1 | 4.31 |
| C1=CC2CC1CC2CNCc1ccco1.Cl (centres unmarked) | 4.12 |
| COC(=O)c1ccccc1NC(=O)CSc1nnc(-c2cccnc2)o1 | -6.93 |
| Nc1ccccc1-c1nnc2n1CCCCC2 | 25.8 |
| COC(=O)c1ccccc1NC(=O)CN(C)S(=O)(=O)c1cc(C)ccc1OC | -13.4 |
| O=S(Cc1ccccc1)CC(O)(c1ccccc1)c1ccccc1 (centres unmarked) | -12.5 |
| NNC(=O)c1oc2nc(-c3cccs3)cc(-c3ccco3)c2c1N | -69.8 |
| Cc1cc(C(F)(F)F)nn1CC(=O)NCC1CCCO1 (centres unmarked) | 4.29 |
| O=C(O)c1cccc(CSc2nnc(Cc3ccccc3)o2)c1 | -5.18 |
| CC1=NN(c2ccc(C)cc2C)C(=O)C1C(c1ccccc1)C1C(=O)N(c2ccc(C)cc2C)N=C1C (centres unmarked) | -12.5 |
| CCOC(=O)c1cc(-c2ccc(C)cc2)n(CCC(=O)N2CCN(c3ccccn3)CC2)c1C | -41 |
| O=C(CN1CCCCC1)NNC(=O)c1cccc(Br)c1 | 4.73 |
| Cc1ccccc1OCC(=O)NCCS(=O)(=O)N1CCN(c2ccc(F)cc2)CC1 | -66.6 |
| COC(=O)c1nn(-c2ccccc2)c(Sc2ccc(Cl)cc2)c1/C=N/O | 3.1 |

| SMILES | hERG current change (%, negative = inhibition) at 10uM [%] |
| --- | --- |
| CC1CN(C(=O)/C=C/c2ccccc2Cl)CC(C)O1 (centres unmarked) | 18.2 |
| CC(C)(C)c1ccc(NC(=O)CC2(C(F)(F)F)OCCO2)cc1 | -5.25 |
| CCOc1ccc(S(=O)(=O)N2CCCC(C(=O)N3CCN(CC)CC3)C2)cc1Cl (centres unmarked) | -2.73 |
| O=C(NCc1ccc2c(c1)OCO2)C1CCCN1S(=O)(=O)c1ccc(Cl)cc1 (centres unmarked) | -35.6 |
| Cc1cc(C)n(CCC(=O)N2CCN(S(=O)(=O)c3ccc(C)c(C)c3)CC2)n1 | 2.06 |
| Cc1ccc(C(=O)NC(=S)Nc2cccc3nsnc23)cc1 | 3.1 |
| COC(=O)c1[nH]c2ccc(Br)cc2c1NC(=O)CN1CCN(C2CCCCC2)CC1 | -78.7 |
| O=C(NC1CC2CCCC(C1)N2CC(=O)N1CCCc2ccccc21)C1CCCCC1 (centres unmarked) | -70.6 |
| O=C(OCCOc1ccc(Br)cc1)c1ccc(Cl)c(S(=O)(=O)N2CCOCC2)c1 | -4.43 |
| COC(=O)c1ccc(/C=C/C(=O)c2ccc(OC)cc2)cc1 | 6.75 |
| COc1ccc(CC(=O)Nc2cc(C)ccc2O)cc1OC | 4.22 |
| O=C(c1ccc(SCc2ccco2)c([N+](=O)[O-])c1)N1CCOCC1 | 2.2 |
| CCOCCCN(C(=O)Nc1ccc(CC)cc1)C1CCN(C(C)=O)CC1 | -28 |
| O=C(Cc1coc2cc3c(cc12)CCC3)NC1CCCCCCC1 | 0.532 |
| CCCCn1c(=O)c(C(=O)Nc2ccccn2)c(O)c2ccccc21 | 2.67 |
| Cn1c(=O)c2cc(S(=O)(=O)NCCC(=O)Nc3ccc(Cl)cc3)ccc2n(C)c1=O | -4.76 |
| COc1ccc(Cc2nnc(N/N=C/c3ccc(Br)cc3)[nH]c2=O)cc1OC | 8.36 |
| CCN(CC(=O)NCc1ccc(Cl)cc1)C(=O)c1ccc2cc(OC)ccc2c1 | 3.72 |
| CCCNC(=O)c1ccc(Cl)c(Cl)c1 | 7.87 |
| Cc1cccc(C)c1Oc1nc(-c2ccccc2)ncc1S(=O)(=O)c1ccccc1 | 7.21 |
| O=C(Nc1ccc(Cl)cn1)Nc1cccs1 | -2.25 |
| CC(C(=O)OCC(=O)N1CCN(c2ccccc2)CC1)N1C(=O)c2ccccc2C1=O (centres unmarked) | -6.66 |
| CCN(CC)S(=O)(=O)c1cc(NC(=O)COC(=O)C2CCC2)ccc1C | -0.777 |

| SMILES | hERG current change (%, negative = inhibition) at 10uM [%] |
| --- | --- |
| CCC(=O)N(CCc1ccccc1)Cc1cc2cc(OC)ccc2[nH]c1=O | -15.6 |
| Cc1cc(OC(=O)c2ccccc2[N+](=O)[O-])c([N+](=O)[O-])c(=O)[nH]1 | 9.57 |
| Cc1ccc(C(=O)N/N=C2\CCSC2)cc1[N+](=O)[O-] | -2.95 |
| CCO[C@H]1OC(C(=O)O)=C[C@@H](c2ccc(C(F)(F)F)cc2)[C@@H]1CCCO | 18.6 |
| CC(=O)Nc1nc(CC(C)C)cc(-c2ccco2)c1C#N | 1.59 |
| CC(O)CNc1nc2c(c(=O)n(C)c(=O)n2C)n1C/C=C/c1ccccc1 (centres unmarked) | -13.7 |
| COc1ccc(N/C=C/C(=O)c2ccccc2)cc1 | 7.98 |
| COc1ccccc1NC(=O)C(C)N(C)CCOc1ccccc1 (centres unmarked) | 16.5 |
| Cn1cccc1CNC(=O)Nc1ccc(Cl)c(Cl)c1 | 10.1 |
| O=C(COC(=O)CC1CCCC1)Nc1ccc(Cl)cn1 | -1.49 |
| COc1ccc(/C=C/C(=O)c2ccc(OC)cc2OC)c(OC)c1 | 1.1 |
| CS(=O)(=O)N(CC(=O)NCc1ccncc1)c1ccc(F)c(Cl)c1 | 6.63 |
| CCCCCC(=O)N[C@@H](c1ccccc1)[C@@H](O)C(=O)O[C@H]1C[C@@]2(O)[C@@H](OC(=O)c3ccccc3)C3[C@](C)(C(=O)[C@H](O)C(=C1C)C2(C)C)[C@@H](OC1OCC(O)C(O)C1O)C[C@H]1OC[C@@]31OC(C)=O (some centres unmarked) | 6.26 |
| O=C(COC(=O)c1cccc(F)c1)NC1CC1 | 41.8 |
| O=C(Cc1cccs1)NCc1cccnc1 | 13 |
| O=C(CCN1C(=O)C2C3C=CC(C3)C2C1=O)Nc1c(F)cccc1F (centres unmarked) | -5.72 |
| O=S(=O)(c1ccccc1)N(Cc1nc(-c2ccccc2)no1)C1CCCCC1 | 5.01 |
| Oc1ccc(/C=N/Nc2nc(N3CCCCCC3)nc(N3CCCCCC3)n2)c(O)c1 | 5.14 |
| COc1cc(OC)cc(C2=NCCN2)c1.Cl | 25.1 |
| O=C(Nc1ccc2c(c1)C(=O)NC2=O)c1cc(Cl)ccc1Cl | 33.1 |
| COc1cccc(OCCCCN2CCCCC2)c1 | -8.36 |
| Cc1c(OCC(=O)NCCCN2CCCC2=O)ccc2c3c(c(=O)oc12)CCC3 | 4.72 |
| Cn1c(CCNC(=O)c2ccco2)nc2cc(NC(=O)c3ccco3)ccc21 | -14.4 |

| SMILES | hERG current change (%, negative = inhibition) at 10uM [%] |
| --- | --- |
| O=C(Cc1cccc2ccccc12)N/N=C/c1ccc(F)cc1 | 13 |
| O=C1NC(=O)C(=Cc2ccc(N3CCOCC3)cc2)C(=O)N1 | 12.9 |
| Cc1ccc(S(=O)(=O)Nc2ccc3ccccc3n2)cc1 | 5.01 |
| c1ccc2sc(NN=C3CCCCCC3)nc2c1 | -0.287 |
| Cc1ccc(-c2nnc(SCC(=O)N3CC(C)CC(C)C3)o2)cc1C (centres unmarked) | -13.8 |
| O=C(O)/C=C\C(=O)NC1CCCCC1 | 9.82 |
| Cc1ccccc1C(=O)NC=C1C(=O)OC(C)(C)OC1=O | 16 |
| Cc1nn(Cc2ccccc2Cl)c(C)c1NC(=O)c1noc2c1CCCCC2 | -13.8 |
| CCOC(=O)C1(C(F)(F)F)N=C(N(C)C)OC(N(C)C)=N1 | 5.29 |
| Cl.O.Oc1cc2c(cc1O)[C@H]1c3ccccc3CN[C@@H]1CC2 | -2.93 |
| CCOC(=O)N1CCN(c2c(N3CCc4ccccc43)c(=O)c2=O)CC1 | -33.6 |
| CCCN(CCC)C(=O)c1ccc2c(c1)N(CC)C(=O)c1ccccc1S2(=O)=O | -9.18 |
| COc1cccc(-c2ccc(=O)n(CC(=O)Nc3ccc(S(=O)(=O)NCC(C)C)cc3)n2)c1 | 7.04 |
| COc1ccc(-c2cc3ccccc3n2CC(O)CN2CCCCC2)cc1.O=C(O)C(=O)O (centres unmarked) | -79.6 |
| COc1ccc(NC(=O)NC2CCCc3ccccc32)cc1 (centres unmarked) | 3.03 |
| COc1ccc(C(=O)C[n+]2cccc(C(N)=O)c2)cc1.[Br-] | 17.8 |
| O=C(NC1CCCC1)c1ccccc1OCc1ccccc1 | -39.6 |
| CN(CC(=O)Nc1ccccc1C(=O)NC1CC1)Cc1ccco1 | 1.63 |
| O=C(NCCc1cnc[nH]1)c1cccs1 | 18.2 |
| Nc1nnnn1/N=C/c1cccc(OCc2ccccc2Cl)c1 | 20.2 |
